Laboratory results from the supplement of paper PMC9174493.
The other results are listed elsewhere or left out. Single values of this set are uncertain. Values with irradiation are relative to irradiated vehicle.

system: A549-Dual; test: ISRE reporter (Lucia luciferase) activity, viability-corrected, relative to vehicle (fold change vs vehicle); higher = more activation of STING-IRF / NF-kB immune response reporter; conditions: 0.3 µM; irradiation: 8 Gy/4 fr

| SMILES | ISRE reporter |
| --- | --- |
| CCN(CC)Cc1cc(Nc2ccnc3cc(Cl)ccc23)ccc1O.Cl.Cl [Amodiaquine hydrochloride] | 0.865 |
| Cc1c(N)c(=O)n(-c2ccccc2)n1C [4-Aminoantipyrine] | 0.934 |
| Cn1cnc2c(F)c(Nc3ccc(Br)cc3F)c(C(=O)NOCCO)cc21 | 0.678 |
| CC1(C)C2CCC1(C)C(O)C2 (stereo unspecified) [Borneol] | 1.16 |
| CC1CC2C3CCC4=CC(=O)C=CC4(C)C3(Cl)C(O)CC2(C)C1(OC(=O)c1ccco1)C(=O)CCl (stereo unspecified) [Mometasone furoate] | 0.0395 |
| CCN(CC)CCCC(C)Nc1ccnc2cc(Cl)ccc12.O=P(O)(O)O.O=P(O)(O)O (stereo unspecified) [Chloroquine Phosphate] | 0.907 |
| COc1cc2c(cc1Cc1cccc(Cl)c1F)c(=O)c(C(=O)O)cn2C(CO)C(C)C (stereo unspecified) [Elvitegravir (GS-9137, JTK-303)] | 0.897 |
| O=c1[nH]c(=O)n(C2CC(O)C(CO)O2)cc1F (stereo unspecified) [Floxuridine] | 1.04 |
| CC1(C)CCC(CN2CCN(c3ccc(C(=O)NS(=O)(=O)c4ccc(NCC5CCOCC5)c([N+](=O)[O-])c4)c(Oc4cnc5[nH]ccc5c4)c3)CC2)=C(c2ccc(Cl)cc2)C1 [Venetoclax (ABT-199, GDC-0199)] | 0.551 |
| Cc1ccc(NC(=O)c2ccc(CN3CCN(C)CC3)cc2)cc1Nc1nc(-c2cccnc2)cs1 [Masitinib (AB1010)] | 1.24 |
| CCc1cc(/C(C)=N/OCc2ccc(C3CCCCC3)c(C(F)(F)F)c2)ccc1CN1CC(C(=O)O)C1 [BAF312 (Siponimod)] | 0.888 |
| CN(C)C(=O)COC(=O)Cc1ccc(OC(=O)c2ccc(NC(=N)N)cc2)cc1.CS(=O)(=O)O [Camostat Mesilate] | 0.784 |
| Nc1nc(=S)c2[nH]cnc2[nH]1 [Thioguanine] | 0.964 |
| OCC1OC(Oc2cc(O)cc(/C=C/c3ccc(O)cc3)c2)C(O)C(O)C1O (stereo unspecified) [Polydatin] | 1.17 |
| COc1cc(N2CCC(N3CCN(C)CC3)CC2)ccc1Nc1ncc(Cl)c(Nc2ccccc2P(C)(C)=O)n1 | 0.912 |
| Cc1cccn2c(=O)c(-c3nnn[n-]3)cnc12.[K+] [Pemirolast potassium] | 0.965 |
| Cc1cccc(N(C)C(=S)Oc2ccc3ccccc3c2)c1 [Tolnaftate] | 1.08 |

same assay, conditions: 0.3 µM; irradiation: none

| SMILES | ISRE reporter |
| --- | --- |
| C=CC(=O)Nc1cc(Nc2nccc(-c3cn(C)c4ccccc34)n2)c(OC)cc1N(C)CCN(C)C [Osimertinib (AZD9291)] | 1.19 |
| CC1CC2C3CCC4=CC(=O)C=CC4(C)C3(F)C(O)CC2(C)C1(O)C(=O)COP(=O)([O-])[O-].[Na+].[Na+] (stereo unspecified) [Dexamethasone Sodium Phosphate] | 0.243 |
| O=C(O)CCCN1CCC(OC(c2ccc(Cl)cc2)c2ccccn2)CC1.O=S(=O)(O)c1ccccc1 (stereo unspecified) [Bepotastine Besilate] | 1.31 |
| CC(=O)OC(C)C(C)C(=O)OCC12C3CC4(C)C(=CCC5C6(C)CCC(OC7OC(C(=O)[O][Na])C(OC8OC(CO)C(O)C(O)C8O)C(O)C7OC7OCC(O)C(O)C7O)C(C)(CO)C6CCC54C)C1CC(C)(C)C(O3)C2O (stereo unspecified) [Sodium Aescinate] | 0.85 |
| Nc1nc(CC(=O)Nc2ccc(CCNCC(O)c3ccccc3)cc2)cs1 (stereo unspecified) [Mirabegron] | 0.896 |
| O=C1OC(OC(=O)c2cccnc2Nc2cccc(C(F)(F)F)c2)c2ccccc21 (stereo unspecified) [Talniflumate] | 0.626 |
| CN1C(C(=O)Nc2ccccn2)=C(O)c2sccc2S1(=O)=O [Tenoxicam] | 1.29 |
| CCC(=O)NS(=O)(=O)c1ccc(-c2c(-c3ccccc3)noc2C)cc1 [Parecoxib] | 0.792 |
| CNCC(O)C(O)C(O)C(O)CO.Cc1c(Nc2ncccc2C(=O)O)cccc1C(F)(F)F [Flunixin Meglumin] | 0.845 |
| Cc1cncc(CN2CCC(=C3c4ccc(Cl)cc4CCc4cccnc43)CC2)c1.O=C(O)/C=C/C(=O)O [Rupatadine Fumarate] | 0.741 |
| COC(=O)CC(O)(CCCC(C)(C)O)C(=O)OC1C(OC)=CC23CCCN2CCc2cc4c(cc2C13)OCO4 (stereo unspecified) [Homoharringtonine] | 0.14 |
| CC(C(=O)[O-])c1ccc(CC2CCCC2=O)cc1.[Na+] (stereo unspecified) [Loxoprofen Sodium] | 0.904 |
| C=C1c2cccc(O)c2C(=O)C2=C(O)C3(O)C(=O)C(C(N)=O)=C(O)C(N(C)C)C3C(O)C12.Cl (stereo unspecified) [Methacycline HCl] | 1.08 |
| CC1CCC2(C(=O)OC3OC(COC4OC(CO)C(OC5OC(C)C(O)C(O)C5O)C(O)C4O)C(O)C(O)C3O)CCC3(C)C(=CCC4C5(C)CC(O)C(O)C(C)(CO)C5CCC43C)C2C1C (stereo unspecified) [Asiaticoside] | 1.01 |
| Nc1nc(F)nc2c1ncn2C1OC(CO)C(O)C1O (stereo unspecified) [Fludarabine] | 0.905 |
| O=NN(CCCl)C(=O)NC1CCCCC1 [Lomustine] | 0.868 |
| O=CC(O)C(O)C(O)C(O)COC1OC(CO)C(O)C(O)C1O (stereo unspecified) [Melibiose] | 1.39 |
| O.S=c1nc[nH]c2nc[nH]c12 [6-Mercaptopurine (6-MP) Monohydrate] | 0.83 |
| CC(C(=O)O)c1cccc(C(=O)c2ccccc2)c1 (stereo unspecified) [Ketoprofen] | 0.818 |
| CNC1CCC(c2ccc(Cl)c(Cl)c2)c2ccccc21.Cl (stereo unspecified) [Sertraline HCl] | 0.931 |

| SMILES | ISRE reporter |
| --- | --- |
| CC1(C)OC2CC3C4CCC5=CC(=O)CCC5(C)C4(F)C(O)CC3(C)C2(C(=O)CCl)O1 (stereo unspecified) [Halcinonide] | 0.394 |
| CC(=O)OC12COC1CC(O)C1(C)C(=O)C(O)C3=C(C)C(OC(=O)C(O)C(NC(=O)OC(C)(C)C)c4ccccc4)CC(O)(C(OC(=O)c4ccccc4)C21)C3(C)C (stereo unspecified) [Docetaxel] | 6.32 |
| CCN(CC)Cc1cc(Nc2ccnc3cc(Cl)ccc23)ccc1O.Cl.Cl [Amodiaquine hydrochloride] | 1.12 |
| Cc1c(N)c(=O)n(-c2ccccc2)n1C [4-Aminoantipyrine] | 0.715 |
| Cn1cnc2c(F)c(Nc3ccc(Br)cc3F)c(C(=O)NOCCO)cc21 | 0.86 |
| CC1(C)C2CCC1(C)C(O)C2 (stereo unspecified) [Borneol] | 1.18 |
| CC1CC2C3CCC4=CC(=O)C=CC4(C)C3(Cl)C(O)CC2(C)C1(OC(=O)c1ccco1)C(=O)CCl (stereo unspecified) [Mometasone furoate] | 0.214 |
| CCN(CC)CCCC(C)Nc1ccnc2cc(Cl)ccc12.O=P(O)(O)O.O=P(O)(O)O (stereo unspecified) [Chloroquine Phosphate] | 0.986 |
| COc1cc2c(cc1Cc1cccc(Cl)c1F)c(=O)c(C(=O)O)cn2C(CO)C(C)C (stereo unspecified) [Elvitegravir (GS-9137, JTK-303)] | 1.08 |
| O=c1[nH]c(=O)n(C2CC(O)C(CO)O2)cc1F (stereo unspecified) [Floxuridine] | 2.09 |
| CC1(C)CCC(CN2CCN(c3ccc(C(=O)NS(=O)(=O)c4ccc(NCC5CCOCC5)c([N+](=O)[O-])c4)c(Oc4cnc5[nH]ccc5c4)c3)CC2)=C(c2ccc(Cl)cc2)C1 [Venetoclax (ABT-199, GDC-0199)] | 0.806 |
| Cc1ccc(NC(=O)c2ccc(CN3CCN(C)CC3)cc2)cc1Nc1nc(-c2cccnc2)cs1 [Masitinib (AB1010)] | 0.944 |
| CCc1cc(/C(C)=N/OCc2ccc(C3CCCCC3)c(C(F)(F)F)c2)ccc1CN1CC(C(=O)O)C1 [BAF312 (Siponimod)] | 1.07 |
| CN(C)C(=O)COC(=O)Cc1ccc(OC(=O)c2ccc(NC(=N)N)cc2)cc1.CS(=O)(=O)O [Camostat Mesilate] | 1.07 |
| Nc1nc(=S)c2[nH]cnc2[nH]1 [Thioguanine] | 0.986 |
| OCC1OC(Oc2cc(O)cc(/C=C/c3ccc(O)cc3)c2)C(O)C(O)C1O (stereo unspecified) [Polydatin] | 1.95 |
| COc1cc(N2CCC(N3CCN(C)CC3)CC2)ccc1Nc1ncc(Cl)c(Nc2ccccc2P(C)(C)=O)n1 | 0.872 |
| Cc1cccn2c(=O)c(-c3nnn[n-]3)cnc12.[K+] [Pemirolast potassium] | 0.914 |
| Cc1cccc(N(C)C(=S)Oc2ccc3ccccc3c2)c1 [Tolnaftate] | 0.923 |
